The data set deals with ATP. Put plainly: switch fluorescence ratio, 500 uM ATP over buffer (Cy3 cluster intensity, sum of 5 cycles each) (fold (ratio)); higher = stronger signal-on switching upon ATP binding; sequences stand for … in TCGTCGGCAGCGTCAGATGTGTATAAGAGACAGTTTTTTTTTTTTTTTTTTTTTTTTT…TC. The settings on record: aptamer strand: ATP DNA aptamer (quencher-CACCTGGGGGAGTATTGCGGAGGAAGG + anchor), 100 nM annealed; ATP concentration: 500 uM; one replicate. In outline:
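The quencher-labelled ATP aptamer, at 100 nM, was annealed to Cy3-labelled switching-strand clusters on a modified Illumina MiSeq flow-cell. The clusters were imaged in selection buffer, then after 15 min with 500 uM ATP at 22 °C, and this buffer/ATP cycle ran five times with NaOH stripping and re-annealing between runs. Per-cluster fluorescence ratios, summed target-cycle over summed buffer-cycle Cy3 intensity, were averaged per switch-domain sequence. Clusters outside 100-1000 RFU were excluded.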

Values marked as one replicate rest on one cluster of the flow cell; about a third of the high ones do not repeat.
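Note: ATP exposure 15 min at 22 °C before imaging.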

For the sequence GTGATGTTTT, the switch fluorescence ratio came out at 0.988. As to ATATATAATC, the switch fluorescence ratio turned out to be 0.989. GGTCGGTTGT: the switch fluorescence ratio was 0.963. Turning to ATGAGAGCCG, the switch fluorescence ratio worked out at 1. Turning to TGGTCTATGT, the switch fluorescence ratio was 0.963.

For the sequence CACGAAAGCT, the switch fluorescence ratio is 1.22. As to TCCTAAAGCT, the switch fluorescence ratio is 1.26. The value for TGTGTTCTCG was 0.999; that for TTGGTCGTGT was 0.983; that for AACCCAGCGC was 1.03. CTGATGGCTA: the switch fluorescence ratio stood at 1.05.

As to AATTTTCATT, the switch fluorescence ratio came out at 0.973. The value for TGAATCGATC was 1.05; that for GCTCTAGTGC was 1.04.

In the case of CTTCCCGGAT, the switch fluorescence ratio turned out to be 1.29.

Regarding ACCGGATCCG, the switch fluorescence ratio worked out at 1.01. For CACTGGGTAC, the switch fluorescence ratio worked out at 1.17. Regarding GCGTCCCGAG, the switch fluorescence ratio worked out at 1.02. The result for CTAAACGAAT reads 1.01; that for CTTGCCGAAG, 1.01; that for CACTTTGGAC, 1.06. With ATTTGGGAAC, the switch fluorescence ratio was 0.985. As for GCTGTCATGC, the switch fluorescence ratio worked out at 1.03.

Take CTTTCCACCT: the switch fluorescence ratio came to 1.16.

In the case of GGCCAATA, the switch fluorescence ratio was determined as 1.03.

Regarding CCCTGCTGAT, the switch fluorescence ratio was 1.23. With TCAATACTCT, the switch fluorescence ratio worked out at 2.79. Turning to AATATTTGTA, the switch fluorescence ratio came out at 1. Consider TGCCTATTTG, for which the switch fluorescence ratio was determined as 1. For the sequence CACATCAGTC, the switch fluorescence ratio worked out at 1.03. For the sequence GGTTAAAAAC, the switch fluorescence ratio was determined as 0.923. With GGGCGCACGA, the switch fluorescence ratio came out at 1.02. For AGCGTGATTC, the switch fluorescence ratio stood at 1.06.

Take CCGTACTTGA: the switch fluorescence ratio came out at 1.05. As for GAATAGGTTG, the switch fluorescence ratio turned out to be 0.963. Turning to TTACACCCGT, the switch fluorescence ratio came out at 1.12.

With GCTCCCAGGC, the switch fluorescence ratio was found to be 1.79.

Consider TGCACGTAAG, for which the switch fluorescence ratio stood at 1.05. For TGATTAAGGC, the switch fluorescence ratio stood at 0.949. For the sequence TTAGGTGGTG, the switch fluorescence ratio came to 1. Turning to AGGCGCGGGA, the switch fluorescence ratio worked out at 1.02.

In the case of GGGCTGCATA, the switch fluorescence ratio amounted to 0.986.

Turning to GAGGATAACA, the switch fluorescence ratio was 0.994. Turning to AGCGTCACGG, the switch fluorescence ratio turned out to be 1.04.

Regarding GAGCCCGAAT, the switch fluorescence ratio worked out at 0.998.

GGTCGGCTGA: the switch fluorescence ratio is 0.967. CGGCTTGTGG: the switch fluorescence ratio was found to be 0.99. Turning to TATCCAAATT, the switch fluorescence ratio turned out to be 1. In the case of CCGTGTTTAG, the switch fluorescence ratio is 1.14. The result for GCATAGGCGT reads 0.979. For the sequence CAGTACGAGG, the switch fluorescence ratio was found to be 0.978. For CCCGTAGACT, the switch fluorescence ratio was 1.5. Turning to CGAGGATGTC, the switch fluorescence ratio is 1.05.

As for GAGACGGGCT, the switch fluorescence ratio came to 1.02. For CGGCCTTTGA, the switch fluorescence ratio turned out to be 0.989. The value for GTAGAAAGCC was 1.06; that for TCAATTCACA was 1.01; that for TTTAGAGTCA was 1.01. Turning to AGTCTTGGTA, the switch fluorescence ratio turned out to be 0.981.

Take TGATTGCTAG: the switch fluorescence ratio amounted to 1.01. Turning to TTATTTGCTT, the switch fluorescence ratio is 1.03.

TTAATGCAGA: the switch fluorescence ratio turned out to be 0.963. As for CTAAGAAAGG, the switch fluorescence ratio stood at 0.939. The value for CCCAGTGCAG was 1.09; that for CCCTGATATT was 1.04; that for TAAATTCAAT was 0.976.

For the origin of these results see the supplement of paper PMC10126150.
